The source of these data is PubChem BioAssay AID330 (DTP/NCI, 2004).

Inconclusive results and toxic doses are left out. Some entries of the source have several records that differ or are many. Only these are listed. The source may hold further records. The records of an entry do not match, cause unknown; they may come from other doses, times, organisms or constructs than stated.

The assay deals with P388 leukemia ip, CD2F1 mice, survival T/C. Nature of the assay: NCI In Vivo Anticancer Drug Screen. Data for tumor model P388 Leukemia (intraperitoneal) in CD2F1 (CDF1) mice. As to conditions: endpoint: median survival time, higher = longer survival.

Consider `NNc1c(C(N)=O)c2c(N)ncnc2n1C1OC(CO)C(O)C1O` (centres undefined), for which, for the setting “dose: 25.0 mg/kg/injection, schedule: Q01DX005 (ip), vehicle: Klucel (hydroxypropylcellulose) (HPC)”, the T/C was 90 % of control and 177 % of control.
On to `CC(=O)[C@]1(O)Cc2c(O)c3c(c(O)c2[C@@H](OC2CC(N)C(O)C(C)O2)C1)C(=O)c1c(O)cccc1C3=O` (some centres undefined), for which the T/C is 99 % of control, 107 % of control, 166 % of control (dose: 0.32 mg/kg/injection, schedule: Q04DX003 (ip), vehicle: water); 90 % of control and 152 % of control (dose: 1.28 mg/kg/injection, schedule: Q04DX003 (ip), vehicle: water).
Regarding `Cc1ccc(-c2cc(=O)c3cccc(CC(=O)O)c3o2)cc1`, the T/C (dose: 200.0 mg/kg/injection, schedule: Q01DX005 (ip), vehicle: Klucel (hydroxypropylcellulose) (HPC)) was 118 % of control and 151 % of control.
